# The list shows a part of the results.
# What was measured:
# Assay in all cases: glycan array binding signal (z-score within array); higher = stronger binding
# Details in all cases: glycan notation: IUPAC condensed, linker removed
# [1] = molecular target: Gal(b1-3)GlcNAc(a1-6)Gal(b1-4)GlcNAc
# Method in brief: (§1)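 Glycan array data were curated from 3228 arrays in the Consortium for Functional Glycomics database and kept only where the protein sequence was available. Glycan names were converted to IUPAC-condensed notation, and columns mapping to the same glycan were averaged. The binding signal is a within-array Z-score, averaged across arrays of the same protein sequence at different concentrations or buffers and across linkers. Negative Z-scores can be read as non-binding.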
# [2] = molecular target: Gal(b1-3)GlcNAc(b1-2)Man(a1-3)[Gal(b1-3)GlcNAc(b1-2)Man(a1-6)]Man(b1-4)GlcNAc(b1-4)GlcNAc
# Method in brief: as §1
# [3] = molecular target: Gal(b1-3)GlcNAc(b1-2)Man(a1-3)[Gal(b1-3)GlcNAc(b1-2)Man(a1-6)]Man(b1-4)GlcNAc(b1-4)[Fuc(a1-6)]GlcNAc
# Method in brief: as §1
# [4] = molecular target: Gal(b1-3)GlcNAc(b1-2)[Gal(b1-3)GlcNAc(b1-6)]Man(a1-6)[Gal(b1-3)GlcNAc(b1-2)Man(a1-3)]Man(b1-4)GlcNAc(b1-4)GlcNAc
# Method in brief: as §1
# [5] = molecular target: Gal(b1-3)GlcNAc(b1-3)Gal(b1-3)GlcNAc
# Method in brief: as §1
# [6] = molecular target: Gal(b1-3)GlcNAc(b1-3)Gal(b1-4)Glc
# Method in brief: as §1
# [7] = molecular target: Gal(b1-3)GlcNAc(b1-3)Gal(b1-4)GlcNAc
# Method in brief: as §1
# [8] = molecular target: Gal(b1-3)GlcNAc(b1-3)Gal(b1-4)GlcNAc(b1-6)[Gal(b1-3)GlcNAc(b1-3)]Gal(b1-4)Glc
# Method in brief: as §1
# [9] = molecular target: Gal(b1-3)GlcNAc(b1-3)Gal(b1-4)[Fuc(a1-3)]GlcNAc(b1-6)[Gal(b1-3)GlcNAc(b1-3)]Gal(b1-4)Glc
# Method in brief: as §1
# [10] = molecular target: Gal(b1-3)GlcNAc(b1-3)GalNAc
# Method in brief: as §1
# [11] = molecular target: Gal(b1-3)GlcNAc(b1-6)Gal(b1-4)GlcNAc
# Method in brief: as §1
# [12] = molecular target: Gal(b1-3)[Fuc(a1-4)]GlcNAc
# Method in brief: as §1
# [13] = molecular target: Gal(b1-3)[Fuc(a1-4)]GlcNAc(b1-2)Man(a1-3)[Gal(b1-3)[Fuc(a1-4)]GlcNAc(b1-2)Man(a1-6)]Man(b1-4)GlcNAc(b1-4)GlcNAc
# Method in brief: as §1
# [14] = molecular target: Gal(b1-3)[Fuc(a1-4)]GlcNAc(b1-2)Man(a1-3)[Gal(b1-3)[Fuc(a1-4)]GlcNAc(b1-2)Man(a1-6)]Man(b1-4)GlcNAc(b1-4)[Fuc(a1-6)]GlcNAc
# Method in brief: as §1
# [15] = molecular target: Gal(b1-3)[Fuc(a1-4)]GlcNAc(b1-3)Gal(b1-3)[Fuc(a1-4)]GlcNAc
# Method in brief: as §1
# [16] = molecular target: Gal(b1-3)[Fuc(a1-4)]GlcNAc(b1-3)Gal(b1-4)GlcNAc
# Method in brief: as §1
# [17] = molecular target: Gal(b1-3)[Fuc(a1-4)]GlcNAc(b1-3)Gal(b1-4)[Fuc(a1-3)]GlcNAc
# Method in brief: as §1
# [18] = molecular target: Gal(b1-3)[GlcNAc(b1-6)]GalNAc
# Method in brief: as §1
# [19] = molecular target: Gal(b1-3)[Neu5Ac(a2-6)]GalNAc
# Method in brief: as §1
# [20] = molecular target: Gal(b1-3)[Neu5Ac(a2-6)]GlcNAc(b1-6)Gal(b1-4)Glc
# Method in brief: as §1
# [21] = molecular target: Gal(b1-3)[Neu5Ac(b2-6)]GalNAc
# Method in brief: as §1
# [22] = molecular target: Gal(b1-4)Gal
# Method in brief: as §1
# [23] = molecular target: Gal(b1-4)GalNAc(a1-3)[Fuc(a1-2)]Gal(b1-4)GlcNAc
# Method in brief: as §1
# [24] = molecular target: Gal(b1-4)GalNAc(b1-3)[Fuc(a1-2)]Gal(b1-4)GlcNAc
# Method in brief: as §1
# [25] = molecular target: Gal(b1-4)Glc
# Method in brief: as §1
# [26] = molecular target: Gal(b1-4)Glc6S
# Method in brief: as §1
# [27] = molecular target: Gal(b1-4)GlcNAc
# Method in brief: as §1
# [28] = molecular target: Gal(b1-4)GlcNAc(a1-6)Gal(b1-4)GlcNAc
# Method in brief: as §1
# [29] = molecular target: Gal(b1-4)GlcNAc(b1-2)Man
# Method in brief: as §1
# [30] = molecular target: Gal(b1-4)GlcNAc(b1-2)Man(a1-3)Man(b1-4)GlcNAc(b1-4)GlcNAc
# Method in brief: as §1
# [31] = molecular target: Gal(b1-4)GlcNAc(b1-2)Man(a1-3)[Gal(b1-4)GlcNAc(b1-2)Man(a1-6)]Man(b1-4)GlcNAc(b1-4)GlcNAc
# Method in brief: as §1
# [32] = molecular target: Gal(b1-4)GlcNAc(b1-2)Man(a1-3)[Gal(b1-4)GlcNAc(b1-2)Man(a1-6)]Man(b1-4)GlcNAc(b1-4)[Fuc(a1-6)]GlcNAc
# Method in brief: as §1
# [33] = molecular target: Gal(b1-4)GlcNAc(b1-2)Man(a1-3)[Gal(b1-4)GlcNAc(b1-2)][GlcNAc(b1-4)]Man(b1-4)GlcNAc(b1-4)GlcNAc
# Method in brief: as §1
# [34] = molecular target: Gal(b1-4)GlcNAc(b1-2)Man(a1-3)[GlcNAc(b1-2)Man(a1-6)]Man(b1-4)GlcNAc(b1-4)GlcNAc
# Method in brief: as §1
# [35] = molecular target: Gal(b1-4)GlcNAc(b1-2)Man(a1-3)[Man(a1-6)]Man(b1-4)GlcNAc(b1-4)GlcNAc
# Method in brief: as §1
# [36] = molecular target: Gal(b1-4)GlcNAc(b1-2)Man(a1-6)Man(b1-4)GlcNAc(b1-4)GlcNAc
# Method in brief: as §1
# [37] = molecular target: Gal(b1-4)GlcNAc(b1-2)Man(a1-6)[GlcNAc(b1-2)Man(a1-3)]Man(b1-4)GlcNAc(b1-4)GlcNAc
# Method in brief: as §1
# [38] = molecular target: Gal(b1-4)GlcNAc(b1-2)Man(a1-6)[Man(a1-3)]Man(b1-4)GlcNAc(b1-4)GlcNAc
# Method in brief: as §1
# [39] = molecular target: Gal(b1-4)GlcNAc(b1-2)[Gal(b1-4)GlcNAc(b1-4)]Man(a1-3)[Gal(b1-4)GlcNAc(b1-2)Man(a1-6)]Man(b1-4)GlcNAc(b1-4)GlcNAc
# Method in brief: as §1
# [40] = molecular target: Gal(b1-4)GlcNAc(b1-2)[Gal(b1-4)GlcNAc(b1-4)]Man(a1-3)[Gal(b1-4)GlcNAc(b1-2)[Gal(b1-4)GlcNAc(b1-6)]Man(a1-6)]Man(b1-4)GlcNAc(b1-4)GlcNAc
# Method in brief: as §1
# [41] = molecular target: Gal(b1-4)GlcNAc(b1-2)[Gal(b1-4)GlcNAc(b1-4)]Man(a1-3)[GlcNAc(b1-4)][Gal(b1-4)GlcNAc(b1-2)Man(a1-6)]Man(b1-4)GlcNAc(b1-4)GlcNAc
# Method in brief: as §1
# [42] = molecular target: Gal(b1-4)GlcNAc(b1-2)[Gal(b1-4)GlcNAc(b1-4)]Man(a1-3)[GlcNAc(b1-4)][Gal(b1-4)GlcNAc(b1-2)[Gal(b1-4)GlcNAc(b1-6)]Man(a1-6)]Man(b1-4)GlcNAc(b1-4)GlcNAc
# Method in brief: as §1
# [43] = molecular target: Gal(b1-4)GlcNAc(b1-2)[Gal(b1-4)GlcNAc(b1-6)]Man(a1-6)[Gal(b1-4)GlcNAc(b1-2)Man(a1-3)]Man(b1-4)GlcNAc(b1-4)GlcNAc
# Method in brief: as §1
# [44] = molecular target: Gal(b1-4)GlcNAc(b1-2)[Gal(b1-4)GlcNAc(b1-6)]Man(a1-6)[GlcNAc(b1-4)][Gal(b1-4)GlcNAc(b1-2)Man(a1-3)]Man(b1-4)GlcNAc(b1-4)GlcNAc
# Method in brief: as §1
# [45] = molecular target: Gal(b1-4)GlcNAc(b1-3)Gal(b1-3)GlcNAc
# Method in brief: as §1
binder,measurement,setting,value
"CV-2L (Chromobacterium violaceum), Q7NX84 (protein) MAQQGVFTLPARINFGVTVLVNSAATQHVEIFVDNEPRAAFSGVGTGDNNLGTKVINSGSGNVRVQITANGRQSDLVSSQLVLANKLNLAVVGSEDGTDMDYNDSIVILNWPLG",glycan array binding signal (z-score),[1],-0.345
same,glycan array binding signal (z-score),[2],-0.294
same,glycan array binding signal (z-score),[3],-0.293
same,glycan array binding signal (z-score),[4],-0.26
same,glycan array binding signal (z-score),[5],-0.322
same,glycan array binding signal (z-score),[6],-0.304
same,glycan array binding signal (z-score),[7],-0.347
same,glycan array binding signal (z-score),[8],-0.321
same,glycan array binding signal (z-score),[9],-0.237
same,glycan array binding signal (z-score),[10],-0.337
same,glycan array binding signal (z-score),[11],-0.32
same,glycan array binding signal (z-score),[12],0.602
same,glycan array binding signal (z-score),[13],-0.346
same,glycan array binding signal (z-score),[14],-0.078
same,glycan array binding signal (z-score),[15],0.794
same,glycan array binding signal (z-score),[16],-0.088
same,glycan array binding signal (z-score),[17],0.831
same,glycan array binding signal (z-score),[18],-0.343
same,glycan array binding signal (z-score),[19],-0.348
same,glycan array binding signal (z-score),[20],-0.344
same,glycan array binding signal (z-score),[21],-0.351
same,glycan array binding signal (z-score),[22],-0.346
same,glycan array binding signal (z-score),[23],-0.341
same,glycan array binding signal (z-score),[24],-0.325
same,glycan array binding signal (z-score),[25],-0.349
same,glycan array binding signal (z-score),[26],-0.349
same,glycan array binding signal (z-score),[27],-0.339
same,glycan array binding signal (z-score),[28],-0.341
same,glycan array binding signal (z-score),[29],-0.34
same,glycan array binding signal (z-score),[30],-0.314
same,glycan array binding signal (z-score),[31],-0.346
same,glycan array binding signal (z-score),[32],-0.275
same,glycan array binding signal (z-score),[33],-0.35
same,glycan array binding signal (z-score),[34],-0.323
same,glycan array binding signal (z-score),[35],-0.185
same,glycan array binding signal (z-score),[36],-0.342
same,glycan array binding signal (z-score),[37],-0.342
same,glycan array binding signal (z-score),[38],0.208
same,glycan array binding signal (z-score),[39],-0.29
same,glycan array binding signal (z-score),[40],-0.302
same,glycan array binding signal (z-score),[41],-0.362
same,glycan array binding signal (z-score),[42],-0.334
same,glycan array binding signal (z-score),[43],-0.307
same,glycan array binding signal (z-score),[44],-0.316
same,glycan array binding signal (z-score),[45],-0.343

# Source: the supplement of paper PMC8728848
